Source: a collection of fitness landscapes (doi:10.1126/science.1257360)
The list shows a part of the results.

B1: PhoQ; a variant is named by its letters at X, in order, P23837 (parent)
chain: MKKLLRLFFPLSLRVRFLLATAAVVLVLSLAYGMVALIGYSVSFDKTTFRLLRGESNLFYTLAKWENNKLHVELPENIDKQSPTMTLIYDENGQLLWAQRDVPWLMKMIQPDWLKSNGFHEIEADVNDTSLLLSGDHSIQQQLQEVREDDDDAEMTHSVAVNVYPATSRMPKLTIVVVDTIPVELKSSYMVWSWFIYVLSANLLLVIPLLWVAAWWSLRPIEALAKEVRELEEHNRELLNPATTRELTSLVRNLNRLLKSERERYDKYRTTLTDLTHSLKTPLXXLQXXLRSLRSEKMSVSDAEPVMLEQISRISQQIGYYLHRASMRGGTLLSRELHPVAPLLDNLTSALNKVYQRKGVNISLDISPEISFVGEQNDFVEVMGNVLDNACKYCLEFVEISARQTDEHLYIVVEDDGPGIPLSKREVIFDRGQRVDTLRPGQGVGLAVAREITEQYEGKIVAGESMLGGARMEVIFGRQHSAPKDE

Variants of: B1
Assay: enrichment ratio after two sorts for PhoP signalling (ratio (wild type AVST 3.29)); higher = more functional
Conditions: with PhoP (E. coli)

| Variant | enrichment ratio |
| --- | --- |
| NLIW | ≤ 0.25 |
| SYHL | ≤ 0.25 |
| SPFV | ≤ 0.25 |
| PKMF | ≤ 0.25 |
| RRLK | ≤ 0.25 |
| LVFS | ≤ 0.25 |
| WSTI | ≤ 0.25 |
| NPEL | ≤ 0.25 |
| HQFQ | ≤ 0.25 |
| FKDE | ≤ 0.25 |
| VNIY | ≤ 0.25 |
| WTMW | ≤ 0.25 |
| ELTQ | ≤ 0.25 |
| GVIF | ≤ 0.25 |
| LMQI | ≤ 0.25 |
| QNQP | ≤ 0.25 |
| RRMC | ≤ 0.25 |
| RGEF | ≤ 0.25 |
| HGHE | ≤ 0.25 |
| TYCG | 5.58 |
| KTAP | ≤ 0.25 |
| LCGE | ≤ 0.25 |
| SCIF | 0.456 |
| YTCP | ≤ 0.25 |
| GGFG | ≤ 0.25 |

| Variant | enrichment ratio |
| --- | --- |
| PSSC | ≤ 0.25 |
| WNRC | ≤ 0.25 |
| EGCP | ≤ 0.25 |
| VSNH | 0.52 |
| DVHV | ≤ 0.25 |
| ESPK | ≤ 0.25 |
| YIKL | ≤ 0.25 |
| HNHR | ≤ 0.25 |
| HFMQ | ≤ 0.25 |
| VCQG | ≤ 0.25 |
| RICI | ≤ 0.25 |
| HTNK | ≤ 0.25 |
| ILSC | ≤ 0.25 |
| HSIQ | ≤ 0.25 |
| KYMI | ≤ 0.25 |
| DESW | ≤ 0.25 |
| DPGI | ≤ 0.25 |
| HGII | ≤ 0.25 |
| YRAR | ≤ 0.25 |
| QYCH | ≤ 0.25 |
| DATY | ≤ 0.25 |
| CFPW | ≤ 0.25 |
| GSYS | ≤ 0.25 |
| PYQE | ≤ 0.25 |
| LMCC | ≤ 0.25 |

| Variant | enrichment ratio |
| --- | --- |
| WFYL | ≤ 0.25 |
| WFFK | ≤ 0.25 |
| NIWK | ≤ 0.25 |
| VQGK | ≤ 0.25 |
| KNDC | ≤ 0.25 |
| PGNT | ≤ 0.25 |
| IKRA | ≤ 0.25 |
| TDIP | ≤ 0.25 |
| ITWG | ≤ 0.25 |
| ETPF | ≤ 0.25 |
| NPCM | ≤ 0.25 |
| VTIE | ≤ 0.25 |
| QSMA | ≤ 0.25 |
| FIWT | ≤ 0.25 |
| YERN | ≤ 0.25 |
| FEIT | 1.84 |
| MECG | 9.16 |
| YTVH | ≤ 0.25 |
| HYTH | ≤ 0.25 |
| DFPS | ≤ 0.25 |
| ECGA | ≤ 0.25 |
| MHKS | ≤ 0.25 |
| ALSD | ≤ 0.25 |
| RPWA | ≤ 0.25 |
| HLPF | ≤ 0.25 |

| Variant | enrichment ratio |
| --- | --- |
| WTIA | ≤ 0.25 |
| DWEP | ≤ 0.25 |
| RNKY | ≤ 0.25 |
| PNGT | ≤ 0.25 |
| RIMD | ≤ 0.25 |
| VEVP | ≤ 0.25 |
| QRAD | ≤ 0.25 |
| RCLS | ≤ 0.25 |
| NESV | ≤ 0.25 |
| NYHV | ≤ 0.25 |
| RWMC | ≤ 0.25 |
| KTQY | ≤ 0.25 |
| EFAY | ≤ 0.25 |
| YHCH | ≤ 0.25 |
| HNDR | ≤ 0.25 |
| KGDS | ≤ 0.25 |
| HCFY | ≤ 0.25 |
| SFHV | ≤ 0.25 |
| ISCT | ≤ 0.25 |
| SNEN | ≤ 0.25 |
| LKMQ | ≤ 0.25 |
| KHSF | ≤ 0.25 |
| TPFQ | ≤ 0.25 |
| GWFQ | ≤ 0.25 |
| GWCP | ≤ 0.25 |

| Variant | enrichment ratio |
| --- | --- |
| DMST | ≤ 0.25 |
| QSTF | ≤ 0.25 |
| EVCP | ≤ 0.25 |
| FLFN | ≤ 0.25 |
| TSDN | ≤ 0.25 |
| WPAV | ≤ 0.25 |
| MDMH | ≤ 0.25 |
| PGKS | ≤ 0.25 |
| SCFR | 0.298 |
| PSHC | ≤ 0.25 |
| WNIR | ≤ 0.25 |
| HRHD | ≤ 0.25 |
| SENH | 3.92 |
| YHCN | ≤ 0.25 |
| WEDP | ≤ 0.25 |
| VARN | ≤ 0.25 |
| GDGR | ≤ 0.25 |
| TQHQ | 13.8 |
| TSYQ | 9.35 |
| TYPH | ≤ 0.25 |
| YPYR | 0.406 |
| KLEI | ≤ 0.25 |
| GGFC | ≤ 0.25 |
| TYWF | ≤ 0.25 |
| ANWP | ≤ 0.25 |

| Variant | enrichment ratio |
| --- | --- |
| VRVE | ≤ 0.25 |
| KKRY | ≤ 0.25 |
| IFRA | ≤ 0.25 |
| MDPY | ≤ 0.25 |
| HNYM | ≤ 0.25 |
| PYIS | ≤ 0.25 |
| VAST | ≤ 0.25 |
| TEVH | 16.3 |
| HDDR | ≤ 0.25 |
| TPGG | ≤ 0.25 |
| AWPW | ≤ 0.25 |
| SGHN | ≤ 0.25 |
| TKQP | ≤ 0.25 |
| PCYD | ≤ 0.25 |
| GIAL | 13 |
| QYMN | ≤ 0.25 |
| GMSQ | ≤ 0.25 |
| VLKS | ≤ 0.25 |
| AMVR | 2.19 |
| TQQI | 11.5 |
| VTQN | ≤ 0.25 |
| MRNY | ≤ 0.25 |
| LEWY | ≤ 0.25 |
| IHHD | ≤ 0.25 |
| MALL | 16.2 |

| Variant | enrichment ratio |
| --- | --- |
| YYWQ | ≤ 0.25 |
| WKTS | ≤ 0.25 |
| GWEF | ≤ 0.25 |
| TMLV | 4.6 |
| NTMQ | ≤ 0.25 |
| WPWY | ≤ 0.25 |
| ESCR | ≤ 0.25 |
| WDFV | ≤ 0.25 |
| VWVI | ≤ 0.25 |
| TCMI | 15 |
| TVHQ | ≤ 0.25 |
| VAPA | ≤ 0.25 |
| QSIP | ≤ 0.25 |
| AFGQ | ≤ 0.25 |
| HFCP | ≤ 0.25 |
| ALPN | ≤ 0.25 |
| RVIE | ≤ 0.25 |
| WLKD | ≤ 0.25 |
| GEHW | ≤ 0.25 |
| MYPM | ≤ 0.25 |
| YDFH | ≤ 0.25 |
| HHQQ | ≤ 0.25 |
| HSRQ | ≤ 0.25 |
| GMVR | ≤ 0.25 |
| TYIG | ≤ 0.25 |

| Variant | enrichment ratio |
| --- | --- |
| NDHT | ≤ 0.25 |
| HTTG | ≤ 0.25 |
| DGGI | ≤ 0.25 |
| DCPA | ≤ 0.25 |
| KWLP | ≤ 0.25 |
| LSDY | ≤ 0.25 |
| TQQA | 2.61 |
| RRWN | ≤ 0.25 |
| NNSP | ≤ 0.25 |
| ACGH | 13.6 |
| HHMA | ≤ 0.25 |
| YRFG | ≤ 0.25 |
| DRQC | ≤ 0.25 |
| QTYR | ≤ 0.25 |
| VPEK | ≤ 0.25 |
| PKRH | ≤ 0.25 |
| WPNK | ≤ 0.25 |
| QLWM | 12.6 |
| RDFW | ≤ 0.25 |
| MAQR | ≤ 0.25 |
